Data published in publication PMC4336329 (PLoS ONE, 2015).
Hit rate of the full screen: of about 310,000 compounds, about 14,000 (4.5%) showed an effect of 50% or more. The effect is printed as a negative number. This is one part of the list.

target: human ether-à-go-go-related gene (hERG) potassium channel (human, UniProt Q12809); assay: primary screen, population patch clamp on CHO cells stably expressing hERG
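Note: peak tail current of the secondary pulse compared with the same well before compound.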

human ether-à-go-go-related gene (hERG) potassium channel, sequence (Q12809 whole entry, looked up): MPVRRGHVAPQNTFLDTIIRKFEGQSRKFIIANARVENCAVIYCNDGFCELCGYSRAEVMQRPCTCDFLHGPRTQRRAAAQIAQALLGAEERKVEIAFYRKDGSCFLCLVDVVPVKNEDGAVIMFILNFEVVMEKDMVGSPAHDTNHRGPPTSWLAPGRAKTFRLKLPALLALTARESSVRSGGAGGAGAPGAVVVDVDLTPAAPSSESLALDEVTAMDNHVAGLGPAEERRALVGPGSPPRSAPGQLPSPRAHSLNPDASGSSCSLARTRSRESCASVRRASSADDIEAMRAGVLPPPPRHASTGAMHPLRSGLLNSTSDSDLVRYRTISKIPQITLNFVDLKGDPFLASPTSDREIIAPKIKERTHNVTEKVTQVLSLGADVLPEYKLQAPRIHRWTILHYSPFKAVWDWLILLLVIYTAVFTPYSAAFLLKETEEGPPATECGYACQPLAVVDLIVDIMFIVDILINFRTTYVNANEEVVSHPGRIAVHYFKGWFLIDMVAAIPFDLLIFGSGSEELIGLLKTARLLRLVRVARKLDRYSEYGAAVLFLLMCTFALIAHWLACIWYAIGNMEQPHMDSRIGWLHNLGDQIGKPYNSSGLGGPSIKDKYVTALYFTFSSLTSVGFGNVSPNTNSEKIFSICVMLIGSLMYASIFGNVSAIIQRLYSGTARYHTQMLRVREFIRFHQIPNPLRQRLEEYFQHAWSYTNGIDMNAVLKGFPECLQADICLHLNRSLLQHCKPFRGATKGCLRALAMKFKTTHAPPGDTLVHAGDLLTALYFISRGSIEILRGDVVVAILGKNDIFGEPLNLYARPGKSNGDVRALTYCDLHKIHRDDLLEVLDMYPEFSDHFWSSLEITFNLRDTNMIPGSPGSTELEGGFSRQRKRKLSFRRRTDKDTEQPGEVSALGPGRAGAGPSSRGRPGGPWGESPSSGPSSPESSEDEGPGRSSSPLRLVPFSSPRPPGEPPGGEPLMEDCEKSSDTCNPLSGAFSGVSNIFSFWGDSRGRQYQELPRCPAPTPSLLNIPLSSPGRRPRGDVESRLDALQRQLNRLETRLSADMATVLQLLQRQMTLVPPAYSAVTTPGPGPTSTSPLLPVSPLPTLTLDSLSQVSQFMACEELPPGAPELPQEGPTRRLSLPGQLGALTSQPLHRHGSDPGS

Compound | hERG current change (%, negative = inhibition) at 10uM
C=CCNC(=S)Nc1nc2c(cc1C(=O)OCC)COC(C)(C)C2 | 7.99%
COc1cc(C)c(S(=O)(=O)N2CCOCC2)c(C)c1C | 15.2%
Cn1nccc1NC(=O)Nc1ccc(OC(F)(F)F)cc1 | -10.5%
CCCCN(C)CCCNC(=O)CS(=O)Cc1nc(-c2ccc(OC)c(OC)c2)oc1C (stereo not drawn) | -8.32%
CCOc1ncccc1C(=O)OCC(=O)c1ccccc1Br | 0.975%
CCC(C)n1c(SCC(=O)Nc2cc(C)on2)nc2ccccc2c1=O (stereo not drawn) | 21.7%
CC1=C(C#N)C(c2ccccc2O)C(C#N)=C(C)N1 | 13.8%
Cc1ccc(C2CC2C(=O)NNC(=S)Nc2cccc(C)c2)cc1 (stereo not drawn) | 1.35%
CN(C)CCNC(=S)Nc1ccc(F)c(F)c1F | 22.3%
COc1ccccc1NC(=O)CSC1=NC(=O)C(Cc2ccccc2)C(=O)N1 (stereo not drawn) | 28%
COc1cc(/C=C(/NC(=O)c2ccccc2)C(=O)Nc2ccccc2)c([N+](=O)[O-])cc1OC | -9.5%
COc1ccc(Br)cc1Cn1nnc(C(=O)Nc2ccc3c(c2)OCCO3)c1N | 21.7%
C[C@H](NC(=O)C1(c2ccccc2)CCN(C(=O)[C@H]2CSCN2C(=O)OC(C)(C)C)CC1)C(=O)O | 6.57%
CN(C)C(=S)Nc1ccc(N2CCOCC2)cc1 | 19.8%
O=C(NCCC1CCCCN1S(=O)(=O)c1ccccc1)C(=O)NC1CC1 (stereo not drawn) | 1.16%
CCOC(=O)c1[nH]c2ccc(OCC)cc2c1NC(=O)CN1CCCC(C)C1 (stereo not drawn) | -18.3%
O=c1c2ccccc2ncn1Cc1ccc(Cl)c(Cl)c1 | -1.7%
CCN(CC)S(=O)(=O)c1ccc(C(=O)N(c2ccccc2)C2C=CS(=O)(=O)C2)cc1 (stereo not drawn) | -14.8%
COc1ccccc1NC(=S)N(Cc1ccc(Cl)cc1)CC1CCC(C(=O)O)CC1 (stereo not drawn) | -0.117%
Nn1c(SCc2ccc(F)cc2)nnc1-c1ccccn1 | 3.97%
COC(=O)c1sccc1NC(=O)CSCCc1ccccn1 | -5.04%
Cc1cccc(N2C(=O)N(c3ccccc3C)C3CS(=O)(=O)CC32)c1 (stereo not drawn) | 9.18%

Compound | hERG current change (%, negative = inhibition) at 10uM
Cc1c(CNC(=O)c2cnn3c2NC(c2ccc(Br)cc2)CC3C(F)(F)F)cnn1C (stereo not drawn) | -24.7%
COc1ccc(-n2ccn(CC(=O)Nc3ccc(OC)cc3OC)c(=O)c2=O)cc1 | 11.3%
COc1ccc(CNc2ncc(-c3ccccc3)n2C)c(OC)c1OC.O=C(O)C(=O)O | -44.1%
COc1cccc(N2C(=O)C3ON(c4ccccc4)C(c4cccs4)C3C2=O)c1 (stereo not drawn) | 9.21%
CCOC(=O)/C(C#N)=C/N=c1ccc(C)cn1C | 5.77%
O=C(NC1Cc2ccccc2C1)c1cc(COc2ccc(F)cc2Cl)on1 | 13.3%
O=C(CN1C(=O)COc2ccc(S(=O)(=O)N3CCOCC3)cc21)NCc1ccco1 | -6.61%
Cn1c(Cl)cnc1C(O)(c1ccccc1)c1ccccc1 | 13.6%
C=CCc1cccc(CNc2nc3ccccc3n2CCN2CCOCC2)c1O | -6.61%
CCCCOC(=O)Cn1c(=N)n(CCN(CC)CC)c2ccccc21 | -52.3%
C/C(=N\NC(=O)C1CC1(c1ccccc1)c1ccccc1)c1cccc([N+](=O)[O-])c1 (stereo not drawn) | -10.1%
Cc1c(Cl)cccc1NC(=O)Cn1nc(C)n2cccc2c1=O | 0.727%
Cc1ccc(CNC(=O)CCS(=O)(=O)c2ccc3c(c2)NC(=O)CO3)cc1 | 4.46%
CCSc1nnc2ccc(-c3ccc(C)cc3)nn12 | -16.9%
O=C(Nc1ccc2nc3ccccc3nc2c1)c1ccccc1 | 15.6%
O=C(O)CNC(=O)c1ccc(N2CCOCC2)cc1[N+](=O)[O-] | 13.1%
CCOC(=O)c1cnn(-c2ccccn2)c1N | -1.64%
CNS(=O)(=O)c1cccc(C(=O)OCc2cc(C(C)=O)ccc2OC)c1 | 1.6%
COc1ccc(S(=O)(=O)n2nc(-n3c(C)ccc3C)c3c(F)cccc32)cc1OC | 13.4%
CCc1nc(Nc2ccc(NC(C)=O)cc2)c2oc3ccccc3c2n1.Cl | 17.9%
CC(NC(N)=O)C(=O)NCC(=O)OCc1ccccc1 (stereo not drawn) | 12.9%
COCCn1c(SCC(N)=O)nc2c(c1=O)SC(C)C2 (stereo not drawn) | -2.6%

Compound | hERG current change (%, negative = inhibition) at 10uM
CC(=O)[C@@]1(O)CC[C@H]2[C@@H]3C[C@H](C)C4=CC(=O)CC[C@]4(C)[C@H]3CC[C@@]21C | -2.92%
O=C(Cn1ncc2c3ccccc3n(Cc3ccccc3F)c2c1=O)NCCN1CCOCC1 | -55.2%
O=C(NCC1CCCO1)c1cc2ccccc2cc1O (stereo not drawn) | -12.3%
O=C(c1ccccc1)N1CCN(c2ccc([N+](=O)[O-])c(NCC3CCCO3)c2)CC1 (stereo not drawn) | -76.9%
N#Cc1ccc(-c2ccc(OCC(=O)NCC(=O)Nc3ccc(F)c(F)c3F)cc2)cc1 | -7.98%
N/C(=N\OC(=O)/C=C/c1ccccc1Cl)c1ccccn1 | 5.88%
COC(=O)Cn1cc(C(=O)c2ccco2)c2ccccc21 | -4.24%
CC(=O)Nc1sc(N/N=C\c2ccccc2F)nc1-c1cccs1 | -22.5%
Cc1cc2nnc(SCC(=O)NCC(c3ccccc3)N(C)C)n2c2ccccc12 (stereo not drawn) | -8.13%
COc1cccc(CNC(=O)c2ccc(CS(=O)Cc3ccc(C)cc3)o2)c1 (stereo not drawn) | 5.9%
COc1ccc(NC(=O)c2cccc(S(=O)(=O)N3CCCCCC3)c2)cc1 | 1.51%
N#Cc1ccc(CN2CCN(C(=O)CNS(=O)(=O)c3ccc4c(c3)OCCCO4)CC2)cc1 | -20.8%
Nc1ccc2nn(-c3cccc4ccccc34)nc2c1 | 4.08%
CCOC(=O)c1cc2c(=O)n3ccccc3nc2n(C(C)C)c1=NC(=O)c1ccncc1 | -67.5%
Cc1cccn2c(N)c(-c3ccccc3)nc12 | -1.88%
Cc1ccc(C)c2c1cc(C)c1nnc(SCC(=O)NCc3ccc4c(c3)OCO4)n12 | -23.6%
Cc1ccc(S(=O)(=O)Nc2cccc(-c3ccc(N4CCCCCC4)nn3)c2)cc1 | 17.1%
CCCCn1cnc2c([nH]c3ccccc32)c1=O | 15.7%
CCCN(CC1CCCO1)C(=O)CCc1nnc(CCc2ccc(OC)cc2)o1 (stereo not drawn) | 12.7%
COc1ccc(NC(=O)CN(C)CC(=O)Nc2cccc(C(C)=O)c2)cc1 | 18.5%
COc1ccc(-c2cc(C(=O)N/N=C(\C)c3cccnc3)c3ccccc3n2)cc1 | 8.87%
O=C(CSc1nnc(Cc2cccs2)n1Cc1ccco1)Nc1ccc(Br)cc1 | -14.2%

Compound | hERG current change (%, negative = inhibition) at 10uM
O=c1c2sccc2n(Cc2cccc(F)c2)c(=O)n1-c1ccc(F)cc1 | -7.59%
COc1cc(OC)c(C#N)c(S(=O)Cc2ccccc2)c1 (stereo not drawn) | 6.12%
CC1CCCN(C2(O)C(=O)Nc3c(C(F)(F)F)cccc32)C1 (stereo not drawn) | 9.9%
CC(C)(C)c1nc2sc3c(c2c(=O)o1)CCCC3 | 17.6%
c1cc2c(cn1)cnc1cscc12 | 15.3%
Fc1c(F)c(F)c(NC2=NCCCCC2)c(F)c1F | 20%
Cc1ccc(O)c(C(=O)c2cnc3onc(-c4ccc(F)cc4)c3c2)c1 | 4.58%
CC(=O)O.NCc1ccc(S(N)(=O)=O)cc1 | 18.5%
C=CCN(CC=C)C(=O)Nc1ccc2nc(C)sc2c1 | 9.53%
CCn1c(SCC(=O)N2CC(=O)Nc3ccccc32)nnc1-c1ccoc1C | 27.2%
CCCCN(C(=O)CCCc1nc2ccccc2s1)c1c(N)n(CC(C)C)c(=O)[nH]c1=O | -8.98%
Cc1ccc(NC(=O)c2nnn(-c3cc(C)cc(C)c3)c2N)cc1 | 3.11%
O=C(c1ccco1)N1CCN(c2nc(C3CC3)nc3sc4c(c23)CCCC4)CC1 | -29.7%
CC(=O)c1cccc(N2C(=O)C3C4CCC(C4=C(C)C)C3C2=O)c1 (stereo not drawn) | 21.1%
CC1CCN(c2ccc(NC(=O)c3ccc([N+](=O)[O-])o3)cc2)CC1.Cl | -4.42%
O=C(Cn1nnc(-c2ccccc2)n1)N/N=C/c1cc([N+](=O)[O-])c(Cl)cc1Cl | 10.9%
O=C(N/N=C/c1cccs1)c1ccc2ncccc2c1 | 16.7%
COC(=O)CN(C)C(=O)c1ccc(OC)c(OC2CCN(C(C)C)CC2)c1 | 13.1%
O=C(NC(=S)Nc1ccc(N2CCOCC2)c(Cl)c1)c1cncc(Br)c1 | 8.44%
COc1ccc(CC(=O)N(Cc2ccccc2)c2ccc(C)cc2)cc1OC | -43.8%
O=C(O)c1cc(NC(=O)c2ccc([N+](=O)[O-])cc2)cc(NC(=O)c2ccc([N+](=O)[O-])cc2)c1 | 10.5%
